{"source": "paper PMC12820563", "note": "Some of the results follow. The list includes weakly bound sequences.", "data": [{"biological_target": "T1, MBP-FoxP3dN (UniProt Q99JB6)", "T1 sequence": "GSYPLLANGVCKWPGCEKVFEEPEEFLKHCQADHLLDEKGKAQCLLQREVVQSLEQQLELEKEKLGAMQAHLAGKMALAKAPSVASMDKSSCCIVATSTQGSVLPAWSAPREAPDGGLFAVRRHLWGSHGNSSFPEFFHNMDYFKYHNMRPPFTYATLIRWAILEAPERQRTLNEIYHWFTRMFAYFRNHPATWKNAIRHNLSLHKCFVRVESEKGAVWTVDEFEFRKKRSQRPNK", "experiment": "PD-seq (MBP pull-down with sequencing)", "conditions": "20 mM Tris-HCl pH 7.5, 100 mM NaCl, 1.5 mM MgCl2, 0.4 uM protein, 0.1 uM dsDNA library, 30 min, room temperature, amylose pull-down; high values mean tight binding; double strand, one strand shown", "values": [{"sequence": "GATGATTGTTCTCCCAGCTGATGAATTAAATAAGTCGAGTAAACAAATTTTCCTAATCTTTCTGTTCAAGCGCCATCTAC", "binding signal (RPM ratio (pull-down/input))": 0.361}, {"sequence": "GATGATTGTTCTCCCAGCTGATGAATTGTGATACTCGAGTAAACAAATTTTCCTAATCTTTCTGTTCAAGCGCCATCTAC", "binding signal (RPM ratio (pull-down/input))": 1.63}, {"sequence": "GATGATTGTTCTCCCAGCTGATGAATTTCCACTCTCGAGTAAACAAATTTTCCTAATCTTTCTGTTCAAGCGCCATCTAC", "binding signal (RPM ratio (pull-down/input))": 0.354}, {"sequence": "GATGATTGTTCTCCCAGCTGATGAATTCCCTCATTCGAGTAAACAAATTTTCCTAATCTTTCTGTTCAAGCGCCATCTAC", "binding signal (RPM ratio (pull-down/input))": 0.325}, {"sequence": "GATGATTGTTCTCCCAGCTGATGAATTAGAGGGATCGAGTAAACAAATTTTCCTAATCTTTCTGTTCAAGCGCCATCTAC", "binding signal (RPM ratio (pull-down/input))": 0.306}, {"sequence": "GATGATTGTTCTCCCAGCTGATGAATTGATGTTATCGAGTAAACAAATTTTCCTAATCTTTCTGTTCAAGCGCCATCTAC", "binding signal (RPM ratio (pull-down/input))": 2.08}, {"sequence": "GATGATTGTTCTCCCAGCTGATGAATTAAATTAGTCGAGTAAACAAATTTTCCTAATCTTTCTGTTCAAGCGCCATCTAC", "binding signal (RPM ratio (pull-down/input))": 0.74}, {"sequence": "GATGATTGTTCTCCCAGCTGATGAATTCGGGACCTCGAGTAAACAAATTTTCCTAATCTTTCTGTTCAAGCGCCATCTAC", "binding signal (RPM ratio (pull-down/input))": 0.277}, {"sequence": "GATGATTGTTCTCCCAGCTGATGAATTCTCTACTTCGAGTAAACAAATTTTCCTAATCTTTCTGTTCAAGCGCCATCTAC", "binding signal (RPM ratio (pull-down/input))": 0.233}, {"sequence": "GATGATTGTTCTCCCAGCTGATGAATTGACACAATCGAGTAAACAAATTTTCCTAATCTTTCTGTTCAAGCGCCATCTAC", "binding signal (RPM ratio (pull-down/input))": 1.3}, {"sequence": "GATGATTGTTCTCCCAGCTGATGAATTCAACCATTCGAGTAAACAAATTTTCCTAATCTTTCTGTTCAAGCGCCATCTAC", "binding signal (RPM ratio (pull-down/input))": 0.46}, {"sequence": "GATGATTGTTCTCCCAGCTGATGAATTTTCCGCGTCGAGTAAACAAATTTTCCTAATCTTTCTGTTCAAGCGCCATCTAC", "binding signal (RPM ratio (pull-down/input))": 0.461}, {"sequence": "GATGATTGTTCTCCCAGCTGATGAATTTTGGCTGTCGAGTAAACAAATTTTCCTAATCTTTCTGTTCAAGCGCCATCTAC", "binding signal (RPM ratio (pull-down/input))": 0.42}, {"sequence": "GATGATTGTTCTCCCAGCTGATGAATTGTGAGGGTCGAGTAAACAAATTTTCCTAATCTTTCTGTTCAAGCGCCATCTAC", "binding signal (RPM ratio (pull-down/input))": 0.555}, {"sequence": "GATGATTGTTCTCCCAGCTGATGAATTATCACTGTCGAGTAAACAAATTTTCCTAATCTTTCTGTTCAAGCGCCATCTAC", "binding signal (RPM ratio (pull-down/input))": 0.395}, {"sequence": "GATGATTGTTCTCCCAGCTGATGAATTCGCGTAATCGAGTAAACAAATTTTCCTAATCTTTCTGTTCAAGCGCCATCTAC", "binding signal (RPM ratio (pull-down/input))": 0.717}, {"sequence": "GATGATTGTTCTCCCAGCTGATGAATTTCGGTATTCGAGTAAACAAATTTTCCTAATCTTTCTGTTCAAGCGCCATCTAC", "binding signal (RPM ratio (pull-down/input))": 1.11}, {"sequence": "GATGATTGTTCTCCCAGCTGATGAATTGTTGGCGTCGAGTAAACAAATTTTCCTAATCTTTCTGTTCAAGCGCCATCTAC", "binding signal (RPM ratio (pull-down/input))": 2.29}, {"sequence": "GATGATTGTTCTCCCAGCTGATGAATTTCAATTTTCGAGTAAACAAATTTTCCTAATCTTTCTGTTCAAGCGCCATCTAC", "binding signal (RPM ratio (pull-down/input))": 0.494}, {"sequence": "GATGATTGTTCTCCCAGCTGATGAATTTAGCCTCTCGAGTAAACAAATTTTCCTAATCTTTCTGTTCAAGCGCCATCTAC", "binding signal (RPM ratio (pull-down/input))": 5.79}, {"sequence": "GATGATTGTTCTCCCAGCTGATGAATTATTTACATCGAGTAAACAAATTTTCCTAATCTTTCTGTTCAAGCGCCATCTAC", "binding signal (RPM ratio (pull-down/input))": 3.48}, {"sequence": "GATGATTGTTCTCCCAGCTGATGAATTTTGTATTTCGAGTAAACAAATTTTCCTAATCTTTCTGTTCAAGCGCCATCTAC", "binding signal (RPM ratio (pull-down/input))": 5.33}, {"sequence": "GATGATTGTTCTCCCAGCTGATGAATTTGACCCCTCGAGTAAACAAATTTTCCTAATCTTTCTGTTCAAGCGCCATCTAC", "binding signal (RPM ratio (pull-down/input))": 0.463}, {"sequence": "GATGATTGTTCTCCCAGCTGATGAATTGACAGATTCGAGTAAACAAATTTTCCTAATCTTTCTGTTCAAGCGCCATCTAC", "binding signal (RPM ratio (pull-down/input))": 0.325}, {"sequence": "GATGATTGTTCTCCCAGCTGATGAATTCCACAGTTCGAGTAAACAAATTTTCCTAATCTTTCTGTTCAAGCGCCATCTAC", "binding signal (RPM ratio (pull-down/input))": 0.317}, {"sequence": "GATGATTGTTCTCCCAGCTGATGAATTATGACAATCGAGTAAACAAATTTTCCTAATCTTTCTGTTCAAGCGCCATCTAC", "binding signal (RPM ratio (pull-down/input))": 0.761}, {"sequence": "GATGATTGTTCTCCCAGCTGATGAATTCTTCGCGTCGAGTAAACAAATTTTCCTAATCTTTCTGTTCAAGCGCCATCTAC", "binding signal (RPM ratio (pull-down/input))": 0.432}, {"sequence": "GATGATTGTTCTCCCAGCTGATGAATTGATATAGTCGAGTAAACAAATTTTCCTAATCTTTCTGTTCAAGCGCCATCTAC", "binding signal (RPM ratio (pull-down/input))": 0.661}, {"sequence": "GATGATTGTTCTCCCAGCTGATGAATTAGATATTTCGAGTAAACAAATTTTCCTAATCTTTCTGTTCAAGCGCCATCTAC", "binding signal (RPM ratio (pull-down/input))": 1.2}, {"sequence": "GATGATTGTTCTCCCAGCTGATGAATTCAGTTGCTCGAGTAAACAAATTTTCCTAATCTTTCTGTTCAAGCGCCATCTAC", "binding signal (RPM ratio (pull-down/input))": 1.69}, {"sequence": "GATGATTGTTCTCCCAGCTGATGAATTGATTAAGTCGAGTAAACAAATTTTCCTAATCTTTCTGTTCAAGCGCCATCTAC", "binding signal (RPM ratio (pull-down/input))": 0.265}]}]}
